The values below are quoted from earlier work in PubChem BioAssay AID1259410 (Chemical Carcinogenesis Research Information System (CCRIS), 2018).

Further values from the same series stand in other lists.

The test system of the data set is rodent tumor promotion studies, tumor incidence. Briefly: CCRIS tumor promotion studies. The text has this: The CCRIS database contains chemical records with carcinogenicity, mutagenicity, tumor promotion, and tumor inhibition test results. It was developed by the National Cancer Institute (NCI). Data are derived from studies cited in primary journals, current awareness tools, NCI reports, and other sources. Test results have been reviewed by experts in carcinogenesis and mutagenesis.
CCRIS provides historical information from the years 1985 - 2011. It is no longer updated.
This is an archive assay for CCRIS tumor promotion studies.

For the compound `CCCCCCCCCCCCCC(=O)O[C@@H]1[C@@H](C)[C@@]2(O)[C@@H](C=C(CO)C[C@]3(O)C(=O)C(C)=C[C@@H]23)[C@@H]2C(C)(C)[C@]12OC(C)=O`, the outcome by setting is: (Carcinogen: DIMETHYLARSINOUS IODIDE [676-75-5], Doses [Carcinogen]: 10 MG IN ACETONE ONCE, Doses [Promoter]: 10 NMOL 2X WEEKLY FOR 25 WKS (STUDY DURATION: 25 WKS), Route [Carcinogen]: SKIN, Route [Promoter]: SKIN, Species: MOUSE, Strain/Sex: HR-1,HAIRLESS/FEMALE (10/GROUP)) “skin-positive”; (Carcinogen: MANCOZEB, 8018-01-7, Carcinogen: MANCOZEB, 8018-01-7, Doses [Carcinogen]: 0, 100 MG/KG BW IN 200 µL DMSO ADMINISTERED INTRAPERIONEALLY ON DAY 14 OF GESTATION, Doses [Carcinogen]: 0, 100 MG/KG BW IN 200 µL DMSO ADMINISTERED INTRAPERIONEALLY ON DAY 14 OF GESTATION, Doses [Promoter]: 0, 5 UG 3/WK AFTER 6 WK OF AGE, Doses [Promoter]: 0, 5 UG 3/WK AFTER 6 WK OF AGE, Route [Carcinogen]: TRANSPLACENTAL, Route [Promoter]: DERMAL, Species: MOUSE, Strain/Sex: SWISS/FEMALE) “skin: tumor”; (Carcinogen: MANCOZEB, 8018-01-7, Carcinogen: MANCOZEB, 8018-01-7, Doses [Carcinogen]: 0, 100 MG/KG BW IN 200 µL DMSO ADMINISTERED INTRAPERIONEALLY ON DAY 14 OF GESTATION, Doses [Carcinogen]: 0, 100 MG/KG BW IN 200 µL DMSO ADMINISTERED INTRAPERIONEALLY ON DAY 14 OF GESTATION, Doses [Promoter]: 0, 5 UG 3/WK AFTER 6 WK OF AGE, Doses [Promoter]: 0, 5 UG 3/WK AFTER 6 WK OF AGE, Route [Carcinogen]: TRANSPLACENTAL, Route [Promoter]: DERMAL, Species: MOUSE, Strain/Sex: SWISS/MALE) “skin: tumor”; (Carcinogen: MANCOZEB, 8018-01-7, Carcinogen: MANCOZEB, 8018-01-7, Doses [Carcinogen]: 100 MG/KG BW IN 50 µL DMSO 3/WK FOR 3 WK, Doses [Promoter]: 0.5 UG IN 100 µL ACETONE 2/WK FOR 12 WK BEGINNING 1 WK POST CARCINOGEN (STUDY DURATION: 16 WK), Route [Carcinogen]: DERMAL, Route [Promoter]: DERMAL, Species: MOUSE, Strain/Sex: SWISS/FEMALE) “skin: papilloma”; (Carcinogen: N-METHYLDIBENZO[C,G]CARBAZOLE, 27093-62-5, Carcinogen: N-METHYLDIBENZO[C,G]CARBAZOLE, 27093-62-5, Doses [Carcinogen]: 200 NMOL IN 50 µL ACETONE ONCE, Doses [Promoter]: 0, 2 UG IN 50 µL ACETONE 2/WK FOR 28 WK BEGINNING IMMEDIATELY AFTER CARCINOGEN TREATMENT (STUDY DURATION: 28 WK), Doses [Promoter]: 0, 2 UG IN 50 µL ACETONE 2/WK FOR 28 WK BEGINNING IMMEDIATELY AFTER CARCINOGEN TREATMENT (STUDY DURATION: 28 WK), Route [Carcinogen]: DERMAL, Route [Promoter]: DERMAL, Species: MOUSE, Strain/Sex: ICR/FEMALE) “skin: papilloma”; (Carcinogen: NIVALENOL [23282-20-4], Doses [Carcinogen]: 5 UG 3/WK IN WK 1, 3 UG 3/WK IN WKS 7, 13, 19, 25, AND 31, 2 UG 3/WK IN WKS 37, 43, 49, AND 55 (STUDY DURATION: 60 WKS), Doses [Carcinogen]: 5 UG 3/WK IN WK 1, 3 UG 3/WK IN WKS 7, 13, 19, 25, AND 31, 2 UG 3/WK IN WKS 37, 43, 49, AND 55 (STUDY DURATION: 60 WKS), Doses [Promoter]: 2 UG 3/WK FOR 6 WKS IN BETWEEN CARCINOGEN TREATMENTS (STUDY DURATION: 60 WKS), Route [Carcinogen]: DERMAL, Route [Promoter]: DERMAL, Species: MOUSE, Strain/Sex: BALB/C/MALE, FEMALE, Strain/Sex: BALB/C/MALE, FEMALE) “skin: papillomas and carcinomas”. Besides, the outcome by setting is: (Carcinogen: NIVALENOL [23282-20-4], Doses [Carcinogen]: 5 UG 3/WK IN WKS 1, 7, 13, 19, 25, 31, 37, 43, 49, AND 55 (STUDY DURATION: 60 WKS), Doses [Promoter]: 2 UG 3/WK FOR 6 WKS IN BETWEEN CARCINOGEN TREATMENTS (STUDY DURATION: 60 WKS), Route [Carcinogen]: DERMAL, Route [Promoter]: DERMAL, Species: MOUSE, Strain/Sex: BALB/C/MALE, FEMALE, Strain/Sex: BALB/C/MALE, FEMALE) “skin: papillomas and carcinomas”; (Carcinogen: PHENOXYOXIRANE, 79526-11-7, Carcinogen: PHENOXYOXIRANE, 79526-11-7, Doses [Carcinogen]: 5 UMOL IN 0.2 ML ACETONE/DMSO FOR 32 WK, Doses [Promoter]: 15 NMOL IN 0.1 ML ACETONE FOR 32 WK (STUDY DURATION: 32 WK), Route [Carcinogen]: DERMAL, Route [Promoter]: DERMAL, Species: MOUSE, Strain/Sex: ICR/FEMALE) “skin: papilloma”; (Carcinogen: PHENYL VINYL ETHER, 766-94-9, Carcinogen: PHENYL VINYL ETHER, 766-94-9, Doses [Carcinogen]: 5 UMOL IN 0.2 ML ACETONE/DMSO FOR 32 WK, Doses [Promoter]: 15 NMOL IN 0.1 ML ACETONE FOR 32 WK (STUDY DURATION: 32 WK), Route [Carcinogen]: DERMAL, Route [Promoter]: DERMAL, Species: MOUSE, Strain/Sex: ICR/FEMALE) “skin: papilloma”; (Carcinogen: Sodium arsenite, 7781-46-5, Carcinogen: Sodium arsenite, 7781-46-5, Doses [Carcinogen]: 0, 42.5, 85 ppm to dams on gestational days 8-18, Doses [Promoter]: 2 ug twice/wk, wks 4025 of life, Doses [Promoter]: 2 ug twice/wk, wks 4025 of life, Route [Carcinogen]: Drinking water, days 8-18 of gestation (dams), Route [Carcinogen]: Drinking water, days 8-18 of gestation (dams), Route [Promoter]: Dermal (to offspring), Species: Mouse, Strain/Sex: C3H/HeNCr, (25 Male and female offspring/Group of dams exposed to sodium arsenite), Strain/Sex: C3H/HeNCr, (25 Male and female offspring/Group of dams exposed to sodium arsenite)) “skin: negative males: liver: hepatocellular carcinomas, lung: tumors females: ov”.
